Screen size: about 48,000 compounds; about 120 (0.25%) were called active. Roughly 4% stayed inconclusive and do not appear here. Calls come from the whole dose curve; as a rule, active = well fitted activation curve with a large enough effect; inconclusive = small, poorly fitted or top-dose-only effect, or another doubt; inactive = no such curve, though single readings can be large or run the other way. This is a selection; strong and weak results do not stand in their true shares. Entries without a call were filed so in the source.

This is an account of results in PubChem BioAssay AID1508624 (National Center for Advancing Translational Sciences (NCATS), 2021).
Potency is the fitted concentration of half-maximal effect.

The nature of the assay: Primary qHTS for Identification of Small Molecule Activators of Huntingtin-Antisense Promoter Activity. Note: nearly all actives have a fitted effect of over 55% in size. Particulars: HEK293 HTT-AS promoter firefly luciferase reporter, 24 h; activity change, positive = activation: at 57.5 µM (top of the series), percent change from vehicle, -100% = no light. In a few lines: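 Quantitative HTS used concentration series of up to 57.5 uM final on HEK293 luciferase reporter cells, 24 h at 37 degrees C. Readout was Dual-Glo firefly luminescence.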
For the compound `CCOCCCN1C(=O)CN(C2CCCCCC2)C(=O)C1c1ccc(OC(C)C)c(OC)c1` (configuration not stated), the activity change, positive = activation is -0.4%.

As for `CCCCOc1ccc(S(=O)(=O)Nc2ccc(-c3ccc(N4CCCCCC4)nn3)cc2)cc1`, the activity change, positive = activation turned out to be 0.987%.

On to `O=C(COc1ccc2oc3c(c2c1)CCCC3)Nc1ccc(Br)cc1`, for which the “activity change, positive = activation” value is inactive: -30.6%.

In the case of `CCOC(=O)C1CCN(C(=O)Cn2nc(C)n3c(cc4cc(F)ccc43)c2=O)CC1`, the activity change, positive = activation is -7.78%.

For the compound `CCCCN1C(=O)CN(C2CCCCCC2)C(=O)C1c1ccc(OCCC)c(OC)c1` (configuration not stated), the activity change, positive = activation is -30.2%.

Take `Cc1coc2cc3oc(=O)c(CCC(=O)NCc4ccc(Cl)cc4)c(C)c3cc12`: the activity change, positive = activation was -44%.

As to `COc1cc(C2C(=O)N(C3CCCCC3)CC(=O)N2Cc2ccc(C)cc2)ccc1OC(C)C` (configuration not stated), the activity change, positive = activation was -22%.

Regarding `Cc1ccc(C(=O)Nc2cccc(C(F)(F)F)c2)cc1-c1ccc2nc(NCCN3CCOCC3)ncc2c1`, the “activity change, positive = activation” value was inactive: -21.2%.

As to `CC(=O)c1ccc(S(=O)(=O)Nc2cccc(-c3ccc(N4CCCCCC4)nn3)c2)cc1`, the activity change, positive = activation is 14.2%.

Turning to `Cc1ccc(Cl)cc1-n1ncc2c(NC3CCCCCC3)ncnc21`, the “activity change, positive = activation” value was inactive: -32.1%.

With `CCc1nnc2c3ccccc3nc(Nc3ccc(C(C)=O)cc3)n12`, the activity change, positive = activation was inactive: -20.1% [at 11.5 µM, percent change from vehicle, -100% = no light].

On to `O=C(Nc1c(Cl)cccc1Cl)c1cc(-c2ccc3c(c2)OCO3)on1`, for which the activity change, positive = activation was 75%.

Regarding `COC(=O)c1cc2oc3ccccc3c2n1Cc1nc(-c2ccc(OC)cc2)oc1C`, the activity change, positive = activation is -2.27%.

As for `Cc1ccc(-n2ncc(C(=O)NCc3ccccc3C)c2-n2cccc2)cc1`, the activity change, positive = activation was -27.6%.

Take `Cc1ccc(NC(=O)/C=C/c2ccc(C)o2)c(C)c1`: the activity change, positive = activation was 25.1%.

On to `CCS(=O)(=O)N1CCC(n2c(C(F)(F)F)nc3cccnc32)CC1`, for which the activity change, positive = activation came to 1.6%.

With `COc1ccc(C2C(=O)N(C3CCCCCC3)CC(=O)N2Cc2ccc(C)cc2)cc1OC` (configuration not stated), the activity change, positive = activation is -11.3%.

For `Cn1c(=O)c2c(ncn2CC(=O)Nc2cccc(C(F)(F)F)c2)n(C)c1=O`, the activity change, positive = activation is -9.84%.

For the compound `COc1ccccc1N1CCN(C(=O)c2cc3c(=O)n(Cc4ccco4)ccc3nc2C)CC1`, the activity change, positive = activation is -8.04%.

As for `CC(=O)c1ccc(S(=O)(=O)Nc2cccc(-c3ccc(N4CCCCC4)nn3)c2)cc1`, the activity change, positive = activation came out at 30.8%.

On to `Cc1ccc(CNC(=O)CCc2c(C)nn(-c3ccc(N4CCCCC4)nn3)c2C)cc1`, for which the activity change, positive = activation amounted to 5.25%.

As to `CCOc1cc(-c2nc3c(c(CC)nn3-c3ccccc3)c3cc(OC)c(OC)cc23)ccc1O`, the activity change, positive = activation came out at 1.08%.

For the compound `CCOC(=O)c1c(-c2ccccc2)oc2ccc(NS(=O)(=O)c3ccc(C)cc3C)cc12`, the activity change, positive = activation is -9.64%.

On to `CN(Cc1ccccc1)C(=O)C1CCN(S(=O)(=O)Cc2ccccc2)CC1`, for which the activity change, positive = activation was -5.59%.

Regarding `CCOc1ccc(CNC(=O)c2cc3ccccn3n2)cc1OC`, the activity change, positive = activation was -14.2%.

With `Cc1ccccc1CSc1nc2c(sc3ccccc32)c(=O)n1CCCOC(C)C`, the “activity change, positive = activation” value was inactive: 12.8%.

`CCCn1ccc2c(OCC(=O)NCc3ccccc3Cl)cccc2c1=O`: the “activity change, positive = activation” value is inactive: -10.1%.

In the case of `Cc1cccc(C)c1Nc1c(-c2ccsc2)nc2ccc(Cl)cn12`, the “activity change, positive = activation” value is inactive: -15.3%.

With `COc1ccc(NC(=O)c2ccc3c(=O)n4nc(Nc5cccc(Cl)c5C)sc4nc3c2)cc1`, the “activity change, positive = activation” value was inactive: -1.21%.

As to `COc1cc2c(-c3ccccc3Cl)nc3c(c(C)nn3-c3ccccc3)c2cc1OC`, the activity change, positive = activation was -11.5%.

As to `Cc1ccc(NC(=O)CSc2nnc(COc3ccc(Cl)cc3)o2)c(C)c1`, the activity change, positive = activation is -2.12%.

On to `Cn1c(=O)n(C)c2cc(N3CCCCC3)c(NC(=O)c3c(F)cccc3F)cc21`, for which the activity change, positive = activation was -16.8%.

`O=C(CSc1nnc2[nH]c(=O)cc(-c3ccccc3)n12)Nc1cc(C(F)(F)F)ccc1Cl`: the Potency is active: 17.8 µM.

Turning to `CC(C)CN(CCNC(=O)c1cc(-c2ccc(Cl)s2)nc2ccccc12)CC(C)C`, the “activity change, positive = activation” value was inactive: -9.2%.

Take `COc1ccc2c(C)c(CCC(=O)NCc3ccc(OC)c(OC)c3)c(=O)oc2c1`: the activity change, positive = activation is -10.9%.

`COc1cccc(NC(=O)C2CCN(S(=O)(=O)c3cc(-c4noc(C)n4)ccc3C)CC2)c1`: the “activity change, positive = activation” value was inactive: -53.4%.

For the compound `Cc1ccc(NC(=O)c2ccc(F)c(S(=O)(=O)N3CCc4ccccc4C3)c2)cc1F`, the “activity change, positive = activation” value is inactive: -27.9%.

Turning to `COc1ccccc1CNC(=O)c1cc2c(=O)n(Cc3cccs3)ccc2nc1C`, the activity change, positive = activation was -31.3%.

Take `COc1ccc(Cl)cc1S(=O)(=O)Nc1cccc(-c2ccc(N3CCOCC3)nn2)c1`: the activity change, positive = activation was determined as 13.1%.

For the compound `COc1cc2c(cc1OC)C(c1ccc(F)cc1)N(c1ccc(F)cc1)C(=O)C2` (configuration not stated), the activity change, positive = activation was -2.72%.

In the case of `COc1ccc(NC(=O)c2cc3c(=O)n(Cc4ccco4)ccc3nc2C)c(OC)c1`, the activity change, positive = activation is -9.09%.

In the case of `COc1cc(-c2nnc(SCC(=O)NC(C)C)o2)cc(OC)c1OC`, the activity change, positive = activation came to 2.4%.

For the compound `CCOc1ccccc1NC(=O)CN1C(=O)C(=O)c2ccccc21`, the “activity change, positive = activation” value is inactive: -11.8%.

Turning to `CCCc1cc(=O)oc2cc(C)c3c(-c4ccccc4)c(C)oc3c12`, the activity change, positive = activation is -13.9%.

As for `CC(NC(=O)c1cc2ccccn2n1)c1ccccc1` (configuration not stated), the activity change, positive = activation was 4.68%.

Consider `COc1ccc(NC(=O)CC2C(=O)N(c3ccc(C)cc3)C(=O)N2C2CCCC2)cc1` (configuration not stated), for which the activity change, positive = activation was -24.4%.

For the compound `Cc1cc(C)c(S(=O)(=O)Nc2ccc(-c3ccc(N4CCCCCC4)nn3)cc2)cc1C`, the activity change, positive = activation was 9.07%.
